Source: PubChem BioAssay AID1346428 (National Center for Advancing Translational Sciences (NCATS), 2018)
Screen size: about 48,000 compounds; about 1,200 (2.5%) were called active. Roughly 2% stayed inconclusive and do not appear here.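 Rule for the calls: active = activation of at least 60% and not above a set upper limit (about 1 call in 100 departs from these limits); inconclusive = activation of 40% to 60%, or above that upper limit; inactive = activation under 40%.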 The list shows a part of the results.

molecular target: Probable G-protein coupled receptor 32 (Homo sapiens) (UniProt O75388); assay: qHTS for Agonists of Human Resolvin D1 Receptor DRV1; conditions: CHO-K1 GPR32 beta-arrestin PathHunter luminescence, 90 min; at 76.9 µM; stronger effect = higher value; zero percent set by DMSO-only wells; note: 0% is about no effect
Chain of UniProt O75388 (O75388 whole entry, looked up, the tested form may be a part): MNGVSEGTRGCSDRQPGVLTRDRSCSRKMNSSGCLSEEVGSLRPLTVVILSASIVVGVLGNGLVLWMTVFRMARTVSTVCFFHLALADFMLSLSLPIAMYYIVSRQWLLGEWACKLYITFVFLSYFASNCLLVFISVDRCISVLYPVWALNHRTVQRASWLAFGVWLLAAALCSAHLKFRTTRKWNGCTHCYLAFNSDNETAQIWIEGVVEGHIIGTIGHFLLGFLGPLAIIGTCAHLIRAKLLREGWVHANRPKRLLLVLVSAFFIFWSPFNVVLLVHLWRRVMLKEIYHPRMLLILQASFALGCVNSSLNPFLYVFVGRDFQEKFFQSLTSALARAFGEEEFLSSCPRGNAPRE
Outline: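 PathHunter enzyme-fragment complementation, CHO-K1 GPR32 stable line; 2,500 cells/well, overnight attach; cpd 90 min 37 °C 5% CO2; detection reagent 1 h RT; chemiluminescence. DMSO = EC0.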

activation, active:
O=C(Cc1ccc(F)cc1)NCCc1csc(-c2cccc(F)c2)n1 103%

activation, inactive:
CCn1c(SCC(=O)N2CCC(C)CC2)nnc1-c1ccccc1O 1.42%
O=S(=O)(Nc1cccc(-c2ccc(N3CCCCCC3)nn2)c1)c1ccccc1 -8.97%
Cc1ccccc1-c1nc(CS(=O)(=O)CC(=O)Nc2cccc(C(F)(F)F)c2)c(C)o1 35.8%
Cc1ccc(S(=O)(=O)NCCc2sc3nc(-c4ccccc4)nn3c2C)cc1C -14.3%
COc1ccc2c(c1)c1c(c(=O)n(Cc3ccccc3)c(=O)n1CC(=O)Nc1c(C)cccc1C)n2C 1.57%
O=C(c1cccc(Cl)c1)N(Cc1ccco1)Cc1ccccc1Cl -32.6%
CCc1nc2onc(C)c2c(=O)n1CC(=O)O 5.86%
Cc1oc(-c2cccc(Br)c2)nc1Cn1c(=O)cc(-c2ccccc2)c2c(C)nn(C)c21 -3.94%
CCCOc1ccc(Nc2cc(C)nc(C)n2)cc1 -24.6%
O=C(Cn1c(=O)n(-c2ccc(F)cc2)c(=O)c2sc3ccccc3c21)NC1CCCCC1 -0.922%
CCOC(=O)c1ccc2c(c1)N(Cc1cccc(C(F)(F)F)c1)C(=O)c1ccccc1S2(=O)=O -1.58%
COc1ccccc1NC(=O)C1=C(C)Nc2nc3ccccc3n2C1c1cccc(Br)c1 (centres undefined) -22.1%
COc1ccc(N2CCN(Cc3cc(=O)oc4ccc(OC)cc34)CC2)cc1 -16.5%
CCc1ccccc1Nc1cc(C(=O)NCCc2ccccc2)c2ccccc2n1 -15.1%
Cc1ccc(CNC(=O)CCC(=O)N2Cc3ccccc3Oc3ncccc32)cc1 -14.2%
COc1ccc(Cn2c(=O)[nH]c3cc(C(=O)N4CCN(c5ccccc5)CC4)ccc3c2=O)cc1 -0.0658%
O=C(NCC(c1cccnc1)N1CCOCC1)C(=O)Nc1ccc(F)cc1 (centres undefined) -0.662%
Cn1c(SCc2cccc(F)c2)nc2c([nH]c3ccccc32)c1=O -6.38%
CCCn1ccc2c(OCC(=O)Nc3ccccc3OCC)cccc2c1=O 39.7%
COc1ccc(OC)c(CCNc2nccn(-c3ccc(C)c(C)c3)c2=O)c1 38.1%
COc1ccc(CCNC(=O)C2CCN(c3nc4ccccc4nc3C(F)(F)F)CC2)cc1OC -13%
O=C(Nc1ccc2nc(SCC(=O)N3CCCc4ccccc43)sc2c1)c1cccc(Cl)c1 -15%
Cc1ccc(NC(=O)CN2C(=O)CSc3ccc(S(=O)(=O)N4CCCC4)cc32)c(C)c1 -19.7%
